The full ranking holds about 110,000 compounds; the median of “z-score” is about -0.1, and the highest 2% start at about 2. Some of the results follow.
target: Metabotropic glutamate receptor 8 (Rattus norvegicus) (UniProt P70579); test: rat mGluR8 modulators via GIRK flux, primary screen, cell-based, thallium flux, HTS (AID 488969); conditions: HEK293 rat mGluR8, GIRK (G protein-gated inwardly rectifying potassium channel) thallium flux, FluoZin2; at 10 µM; stronger effect = higher value; submaximal glutamate (EC20) added with thallium
UniProt P70579, sequence (P70579 whole entry, looked up): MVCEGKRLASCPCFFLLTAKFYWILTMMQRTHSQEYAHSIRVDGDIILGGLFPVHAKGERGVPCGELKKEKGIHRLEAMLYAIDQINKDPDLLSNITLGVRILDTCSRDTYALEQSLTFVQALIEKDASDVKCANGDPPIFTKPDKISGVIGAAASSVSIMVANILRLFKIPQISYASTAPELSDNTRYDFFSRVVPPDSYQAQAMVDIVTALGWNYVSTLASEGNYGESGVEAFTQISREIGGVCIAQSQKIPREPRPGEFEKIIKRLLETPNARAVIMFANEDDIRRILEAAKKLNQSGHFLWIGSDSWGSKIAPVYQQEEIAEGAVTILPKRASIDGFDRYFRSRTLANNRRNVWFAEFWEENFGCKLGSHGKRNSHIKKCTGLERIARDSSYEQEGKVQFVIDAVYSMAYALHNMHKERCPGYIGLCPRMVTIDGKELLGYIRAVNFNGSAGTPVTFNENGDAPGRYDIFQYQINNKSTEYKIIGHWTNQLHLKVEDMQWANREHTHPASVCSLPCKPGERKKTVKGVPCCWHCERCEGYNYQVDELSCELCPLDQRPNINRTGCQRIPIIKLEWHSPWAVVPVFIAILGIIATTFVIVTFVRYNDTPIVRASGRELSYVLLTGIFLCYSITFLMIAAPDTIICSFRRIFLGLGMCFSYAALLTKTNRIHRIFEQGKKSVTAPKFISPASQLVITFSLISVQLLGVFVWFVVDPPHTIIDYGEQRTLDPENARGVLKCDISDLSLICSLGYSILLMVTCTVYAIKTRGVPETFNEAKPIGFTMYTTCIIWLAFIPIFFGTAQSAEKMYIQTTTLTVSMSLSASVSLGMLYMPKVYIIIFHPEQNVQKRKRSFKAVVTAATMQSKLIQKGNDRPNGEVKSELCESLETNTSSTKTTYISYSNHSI

| Structure (SMILES) | z-score |
| --- | --- |
| Clc1ccc(-c2nnc(SCc3ccon3)o2)c(Cl)c1 | 0.0474 |
| O=C1/C(=C/c2ccc(F)cc2)SC(=S)N1Nc1ncc(C(F)(F)F)cc1Cl | 0.426 |
| CCc1ccc(NC(=O)c2cnn3ccccc23)cc1 | 0.194 |
| CCOc1ccc(N(CC(=O)OC)S(=O)(=O)c2ccc3c(c2)n(C)c(=O)c(=O)n3C)cc1 | -0.45 |
| O=S(=O)(c1cccc(-c2nc3n(n2)Cc2ccccc2-3)c1)N1CCCCC1 | -0.199 |
| Cc1ccc(N(CC(=O)N2CCc3ccccc32)C2=NC(=O)CS2)cc1 | 0.254 |
| Cc1ccc(-c2noc(CCC(=O)NCc3ccco3)n2)cc1 | 0.23 |
| COC(=O)c1ccc(COc2ccccc2/C=C(\C#N)C(=O)Nc2ccc(C)cc2C)cc1 | -0.285 |
| COc1ccc(CNc2nc3nc(-c4ccccc4)cc(=O)n3[nH]2)cc1OC | -0.647 |
| COc1ccccc1-c1cc(C2CC2)nc(N)c1C#N | -0.0758 |
| COc1ccc(/C=C2\SC(=O)N(CCC(=O)Nc3ccc(S(=O)(=O)Nc4nccs4)cc3)C2=O)cc1 | -0.0479 |
| CSc1nc2ccc(NS(=O)(=O)c3cccc(Cl)c3Cl)cc2s1 | -0.391 |
| O=C(CN1CCN(c2ncc(C(F)(F)F)cc2Cl)CC1)N1CCN(c2ncc(C(F)(F)F)cc2Cl)CC1 | -0.146 |
| Cc1ccc(S(=O)(=O)N/N=C\c2cc([N+](=O)[O-])ccc2Cl)cc1 | -0.0645 |
| CCCNC(=O)c1cc2c3ccccc3n(C)c2s1 | -0.375 |
| CN=c1sc2ccccc2n1CC(O)COCc1ccco1 (centres undefined) | -0.223 |
| Cc1ccc(C(=O)OCC(=O)N2CCc3ccccc32)cc1 | -0.119 |
| N#C/C(=C\c1cccc(NC(=O)c2ccccc2Cl)c1)C(=O)NCCc1ccccc1 | -0.167 |
| CCCCCn1c(N(C)Cc2ccccc2)nc2c1c(=O)[nH]c(=O)n2C | 0.428 |
| CN(C)c1ccc(CNC(=O)C2CCN(S(=O)(=O)c3ccc4c(c3)CCC(=O)N4)CC2)cc1 | -0.357 |
| CCc1nc(NCCN2CCOCC2)c2oc3ccccc3c2n1 | 0.0575 |
| C=CCc1cccc(/C=C/c2cc(=O)c3ccccc3[nH]2)c1O | -0.186 |
| O=C(N/N=C/c1cc([N+](=O)[O-])ccc1O)C1CCCCC1 | -0.174 |
| CCOC(=O)C1=C(CN2c3ccccc3CC2C)NC(=O)NC1c1ccccc1 (centres undefined) | 0.11 |
| COCc1cc(C)nc(SCC(=O)Nc2cc3c(cc2C#N)OCO3)c1C#N | 0.982 |
| CC(C)C(=O)Nc1cccc(C(=O)OCC(=O)c2ccc(Cl)cc2Cl)c1 | -0.198 |
| COc1ccc2c(c1)c(C(=O)N/N=C/c1ccc(OC)c(OC)c1)c(C)n2C | 0.0746 |
| COc1ccc(-c2nc(N)ncc2-c2csc(C)n2)c(O)c1 | -0.298 |
| O=C(CSc1nc2ccccc2o1)NC(=O)NCc1ccco1 | 0.217 |

Source: PubChem BioAssay AID488969 (Vanderbilt High Throughput Screening Facility, 2010)
